# Source: US11618753B2 (priority 2018, dated 2023)
# Tested on: MLKL phosphorylation, HT29-L23 human colorectal adenocarcinoma cells
# Test: cells
# Conditions: read-out: pMLKL HCS Cell Assay (IC50, uM)
row,Structure (SMILES),IC50
1,"Nc1ncnn2c(-c3cccc(C(=O)N[C@@H]4CN(C(=O)c5cccc(F)c5)C[C@@H]4F)c3)cc(C(F)(F)F)c12 [Example 92, 3-[4-amino-5-(trifluoromethyl)pyrrolo[2,1-f][1,2,4]triazin-7-yl]-N-[(3R,4S)-4-fluoro-1-(3-fluorobenzoyl)pyrrolidin-3-yl]benzamide]",0.027 µM
2,"Nc1ncnn2c(-c3cccc(C(=O)N[C@@H]4CN(C(=O)C5(F)CCC5)C[C@@H]4F)c3)cc(C(F)(F)F)c12 [Example 93, 3-[4-amino-5-(trifluoromethyl)pyrrolo[2,1-f][1,2,4]triazin-7-yl]-N-[(3R,4S)-4-fluoro-1-(1-fluorocyclobutanecarbonyl)pyrrolidin-3-yl]benzamide]",0.022 µM
3,"Nc1ncnn2c(-c3cccc(C(=O)N[C@@H]4CN(C(=O)c5c(F)cncc5F)C[C@@H]4F)c3)cc(C(F)(F)F)c12 [Example 94, 3-[4-amino-5-(trifluoromethyl)pyrrolo[2,1-f][1,2,4]triazin-7-yl]-N-[(3R,4S)-1-(3,5-difluoropyridine-4-carbonyl)-4-fluoropyrrolidin-3-yl]benzamide]",0.012 µM
4,"CC(C)(F)C(=O)N1C[C@H](F)[C@H](NC(=O)c2cccc(-c3cc(C(F)(F)F)c4c(N)ncnn34)c2)C1 [Example 96, 3-[4-amino-5-(trifluoromethyl)pyrrolo[2,1-f][1,2,4]triazin-7-yl]-N-[(3R,4S)-4-fluoro-1-(2-fluoro-2-methylpropanoyl)pyrrolidin-3-yl]benzamide]",0.082 µM
5,"Nc1ncnn2c(-c3cccc(C(=O)N[C@@H]4CN(C(=O)C5(F)CC5)C[C@@H]4F)c3)cc(C(F)(F)F)c12 [Example 97, 3-[4-amino-5-(trifluoromethyl)pyrrolo[2,1-f][1,2,4]triazin-7-yl]-N-[(3R,4S)-4-fluoro-1-(1-fluorocyclopropanecarbonyl)pyrrolidin-3-yl]benzamide]",0.096 µM
6,"Nc1ncnn2c(-c3cccc(C(=O)N[C@@H]4CN(C(=O)CC(F)(F)F)C[C@@H]4F)c3)cc(C(F)(F)F)c12 [Example 98, 3-[4-amino-5-(trifluoromethyl)pyrrolo[2,1-f][1,2,4]triazin-7-yl]-N-[(3R,4S)-4-fluoro-1-(3,3,3-trifluoropropanoyl)pyrrolidin-3-yl]benzamide]",0.182 µM
7,"Nc1ncnn2c(-c3cccc(C(=O)N[C@@H]4CN(C(=O)C5(C(F)(F)F)CCCC5)C[C@@H]4F)c3)cc(C(F)(F)F)c12 [Example 99, 3-[4-amino-5-(trifluoromethyl)pyrrolo[2,1-f][1,2,4]triazin-7-yl]-N-[(3R,4S)-4-fluoro-1-[1-(trifluoromethyl)cyclopentanecarbonyl]pyrrolidin-3-yl]benzamide]",0.218 µM
8,"Nc1ncnn2c(-c3cccc(C(=O)N[C@@H]4CN(C(=O)c5ccc(F)cc5)C[C@@H]4F)c3)cc(C(F)(F)F)c12 [Example 104, 3-[4-amino-5-(trifluoromethyl)pyrrolo[2,1-f][1,2,4]triazin-7-yl]-N-[(3R,4S)-4-fluoro-1-(4-fluorobenzoyl)pyrrolidin-3-yl]benzamide]",0.045 µM
9,"Nc1ncnn2c(-c3cccc(C(=O)N[C@@H]4CN(C(=O)C5CCC(F)(F)CC5)C[C@@H]4F)c3)cc(C(F)(F)F)c12 [Example 105, 3-[4-amino-5-(trifluoromethyl)pyrrolo[2,1-f][1,2,4]triazin-7-yl]-N-[(3R,4S)-1-(4,4-difluorocyclohexanecarbonyl)-4-fluoropyrrolidin-3-yl]benzamide]",0.072 µM
10,"Nc1ncnn2c(-c3cccc(C(=O)N[C@@H]4CN(C(=O)C5CCC(F)(F)C5)C[C@@H]4F)c3)cc(C(F)(F)F)c12 (stereo partly drawn) [Example 106, 3-[4-amino-5-(trifluoromethyl)pyrrolo[2,1-f][1,2,4]triazin-7-yl]-N-[(3R,4S)-1-(3,3-difluorocyclopentanecarbonyl)-4-fluoropyrrolidin-3-yl]benzamide]",0.012 µM
11,"Nc1ncnn2c(-c3cccc(C(=O)N[C@@H]4CN(C(=O)C5CC5(F)F)C[C@@H]4F)c3)cc(C(F)(F)F)c12 (stereo partly drawn) [Example 107, 3-[4-amino-5-(trifluoromethyl)pyrrolo[2,1-f][1,2,4]triazin-7-yl]-N-[(3R,4S)-1-(2,2-difluorocyclopropanecarbonyl)-4-fluoropyrrolidin-3-yl]benzamide]",0.05 µM
12,"Nc1ncnn2c(-c3cccc(C(=O)N[C@@H]4CN(C(=O)C5CC(F)(F)C5)C[C@@H]4F)c3)cc(C(F)(F)F)c12 [Example 108, 3-[4-amino-5-(trifluoromethyl)pyrrolo[2,1-f][1,2,4]triazin-7-yl]-N-[(3R,4S)-1-(3,3-difluorocyclobutanecarbonyl)-4-fluoropyrrolidin-3-yl]benzamide]",0.053 µM
13,"COc1ncc(-c2cc(C(F)(F)F)c3c(N)ncnn23)cc1C(=O)NCCC(C)c1ccccc1 (stereo not shown) [Example 109, 5-[4-amino-5-(trifluoromethyl)pyrrolo[2,1-f][1,2,4]triazin-7-yl]-2-methoxy-N-(3-phenylbutyl)pyridine-3-carboxamide]",0.0097 µM
14,"COc1ncc(-c2cc(C(F)(F)F)c3c(N)ncnn23)cc1C(=O)Nc1cnn(Cc2ccccc2)c1 [Example 110, 5-[4-amino-5-(trifluoromethyl)pyrrolo[2,1-f][1,2,4]triazin-7-yl]-N-(1-benzyl-1H-pyrazol-4-yl)-2-methoxypyridine-3-carboxamide]",0.0012 µM
15,"COc1ncc(-c2cc(C(F)(F)F)c3c(N)ncnn23)cc1C(=O)NCCCOC(C)(C)C [Example 112, 5-[4-amino-5-(trifluoromethyl)pyrrolo[2,1-f][1,2,4]triazin-7-yl]-N-[3-(tert-butoxy)propyl]-2-methoxypyridine-3-carboxamide]",0.343 µM
16,"COc1ncc(-c2cc(C(F)(F)F)c3c(N)ncnn23)cc1C(=O)NCCCOc1ccc(F)cc1 [Example 113, 5-[4-amino-5-(trifluoromethyl)pyrrolo[2,1-f][1,2,4]triazin-7-yl]-N-[3-(4-fluorophenoxy)propyl]-2-methoxypyridine-3-carboxamide]",0.085 µM
17,"COc1ncc(-c2cc(C(F)(F)F)c3c(N)ncnn23)cc1C(=O)Nc1cnn(CC(F)(F)F)c1 [Example 115, 5-[4-amino-5-(trifluoromethyl)pyrrolo[2,1-f][1,2,4]triazin-7-yl]-2-methoxy-N-[1-(2,2,2-trifluoroethyl)-1H-pyrazol-4-yl]pyridine-3-carboxamide]",0.029 µM
18,"COc1ncc(-c2cc(C(F)(F)F)c3c(N)ncnn23)cc1C(=O)NCCC(O)c1ccccc1 (stereo not shown) [Example 117, 5-[4-amino-5-(trifluoromethyl)pyrrolo[2,1-f][1,2,4]triazin-7-yl]-N-(3-hydroxy-3-phenylpropyl)-2-methoxypyridine-3-carboxamide]",0.079 µM
19,"COc1ncc(-c2cc(C(F)(F)F)c3c(N)ncnn23)cc1C(=O)NC[C@H]1C[C@@H]1c1cc(C(F)(F)F)cc(C(F)(F)F)c1 [Example 118, 5-[4-amino-5-(trifluoromethyl)pyrrolo[2,1-f][1,2,4]triazin-7-yl]-N-{[(1S,2S)-2-[3,5-bis(trifluoromethyl)phenyl]cyclopropyl]methyl}-2-methoxypyridine-3-carboxamide]",0.402 µM
20,"COc1ncc(-c2cc(C(F)(F)F)c3c(N)ncnn23)cc1C(=O)N[C@H]1CCN(Cc2ccccc2)C1 [Example 119, 5-[4-amino-5-(trifluoromethyl)pyrrolo[2,1-f][1,2,4]triazin-7-yl]-N-[(3S)-1-benzylpyrrolidin-3-yl]-2-methoxypyridine-3-carboxamide]",0.042 µM
21,"COc1ncc(-c2cc(C(F)(F)F)c3c(N)ncnn23)cc1C(=O)N[C@H]1CCN(C(=O)c2ccccc2)C1 [Example 121, 5-[4-amino-5-(trifluoromethyl)pyrrolo[2,1-f][1,2,4]triazin-7-yl]-N-[(3S)-1-benzoylpyrrolidin-3-yl]-2-methoxypyridine-3-carboxamide]",0.13 µM
22,"COc1ncc(-c2cc(C(F)(F)F)c3c(N)ncnn23)cc1C(=O)N1CCC(Cc2ccccc2)C1 (stereo not shown) [Example 124, 7-[5-(3-benzylpyrrolidine-1-carbonyl)-6-methoxypyridin-3-yl]-5-(trifluoromethyl)pyrrolo[2,1-f][1,2,4]triazin-4-amine]",0.388 µM
23,"COc1ncc(-c2cc(C(F)(F)F)c3c(N)ncnn23)cc1C(=O)NCCC(O)c1ccc(F)cc1 (stereo not shown) [Example 125, 5-[4-amino-5-(trifluoromethyl)pyrrolo[2,1-f][1,2,4]triazin-7-yl]-N-[3-(4-fluorophenyl)-3-hydroxypropyl]-2-methoxypyridine-3-carboxamide]",0.005 µM
24,"COc1ncc(-c2cc(C(F)(F)F)c3c(N)ncnn23)cc1C(=O)NCC1CCCOC1c1ccccc1 (stereo not shown) [Example 128, 5-[4-amino-5-(trifluoromethyl)pyrrolo[2,1-f][1,2,4]triazin-7-yl]-2-methoxy-N-[(2-phenyloxan-3-yl)methyl]pyridine-3-carboxamide]",0.313 µM
25,"COc1ncc(-c2cc(C(F)(F)F)c3c(N)ncnn23)cc1C(=O)N1CCCC(Cc2cccc(F)c2)C1 (stereo not shown) [Example 129, 7-(5-{3-[(3-fluorophenyl)methyl]piperidine-1-carbonyl}-6-methoxypyridin-3-yl)-5-(trifluoromethyl)pyrrolo[2,1-f][1,2,4]triazin-4-amine]",0.022 µM
26,"COc1ncc(-c2cc(C(F)(F)F)c3c(N)ncnn23)cc1C(=O)N1CCCC(Cc2ccc(C)cc2)C1 (stereo not shown) [Example 130, 7-(6-methoxy-5-{3-[(4-methylphenyl)methyl]piperidine-1-carbonyl}pyridin-3-yl)-5-(trifluoromethyl)pyrrolo[2,1-f][1,2,4]triazin-4-amine]",0.078 µM
27,"COc1ncc(-c2cc(C(F)(F)F)c3c(N)ncnn23)cc1C(=O)N1CCCC(Cc2ccc(Cl)cc2)C1 (stereo not shown) [Example 132, 7-(5-{3-[(4-chlorophenyl)methyl]piperidine-1-carbonyl}-6-methoxypyridin-3-yl)-5-(trifluoromethyl)pyrrolo[2,1-f][1,2,4]triazin-4-amine]",0.075 µM
28,"COc1ncc(-c2cc(C(F)(F)F)c3c(N)ncnn23)cc1C(=O)N1CCC[C@@H](Cc2cccc(F)c2)C1 [Example 133, 7-{5-[(3S)-3-[(3-fluorophenyl)methyl]piperidine-1-carbonyl]-6-methoxypyridin-3-yl}-5-(trifluoromethyl)pyrrolo[2,1-f][1,2,4]triazin-4-amine]",0.016 µM
